Test results: the RNAGym collection of RNA variant scans (doi:10.7554/elife.90254)
Read counts are not given, so values of variants with three or more changes are uncertain.

B1: OR4K15 (parent)
chain: GUUAACGGUCAUAGGCCAUGGAAACUAGGAGCACCAUUUCGCUGCCAGUGAAGAAAUGAACAAAGAAAAUCUGGGCCAGGCAGGCAUCAAAAGAAAUAGUCUUGCGCUCAACCAGAAAGUCUGUAAUCAUUUUAAGGGUA

Variants of: B1
Assay: self-cleavage, relative activity (ratio to wild type); higher = more cleavage; in vitro, sequencing; the parent is a self-cleaving ribozyme

Variant	self-cleavage
U39C A78G A82U U127C	0.01
A59G A89G U122C	1.21
U87C U120C U124C U139C	0.27
A23G A64G G83A	1.49
U3C A11G A96G	0.4
U72A A98G A117U U124A	0.01
A82U U103C U108C U127C	0.01
A11G A23G A86G	1.22
A11G A51U U87C U108C A118U U127C U132C	0
U49C U57C A63G A94G	0.99
U39C U70A A94G A118G	1.24
U26C A30G A51G U102C	1.43
A5G A55U A62G U127C U131C	0.32
A18G A47G A82G U100C A111G A118G	0.01
A23G U49C A94G	0.79
A51G U87C A118G	1.23
U26C A90G A92U U103C U132C	0.19
U9C A18U A69G U103G U132C	0.04
A51G A68G A86G	1.08
U43A A78U U139C A140G	0.47
G7U A23G A30G A82U G123U	0.42
A64U A91G A92G U132C	1.05
U9C A30G A95U A116G U122C	1.13
A5C A11G U12A A36G C61G U72C	0.23

Variant	self-cleavage
A18G A36G U70C	0.64
U37C A62G A78G	0.08
C113U A116G U122C G138A	0.01
A68G A86G A110G	0.18
A63G U72A A89G A117U	0.34
U2A U70A A96U C113G	0.02
A4G A78U A86G A96G	0.11
A33G A54G A90G U100A	0.31
U19A A33G A116G	0.38
A11G A52G G65U A135G	0.36
U72A A111G A114G	0.01
C10U A63G A118G	0.4
A11U U19C A82C A129G	0.09
U37C A56G U120C	0.59
A22G U37C A96C	0.73
A18G A36G U133A	1.85
U19C A27G A47U A51G A78G U103C	0.33
U43C A56G A114G	0.16
U72A A82G A96G A140G	0.26
A56G G80A A89G A92G A116G	0.1
A30G A64G A89G A91G	1.2
U37C U100C U108C A129G	0
G20A A56G A118G	1
A22G A24G A52G A86G U100C G115U	0.67

Variant	self-cleavage
A24C A86G U103C A111G U120A U127C	0
U9C A59G A64G A118G	0.49
U39C A59G A68G C101U	0.3
A24G A33G U37C A111G	0.08
A13G U37C A110G	0.21
U2C U12C C32U A55G A66G G79U U87C A134G	0.08
U9C A36G A64G G80U	0.19
A63U A66G A78G A96G	0.36
A63G A64G A94G	2.01
U3A A91G A116G	0.23
U2C A95G U103C	0.51
U38C U87C U132C	2.11
A22G U39C U72C C105A A118C	0.01
A64G A96G A111G U122A	0.02
A24G A56G A59G A78G A89U U124C	0.04
A18G A69G A89G	0.71
A91G A118U U122C	0.24
U37C G73U A116G A126G	0.01
A5G U19C A52G	0.98
U26G A64G U120C	0.98
U26C A33C A90G U130C	0.88
A18G A59G U102C	1.25
U43A A54G U72C	0.18
U43G A95G U120A	2.44

Variant	self-cleavage
A96G U103C U127C	0.09
U37C A96G U139C	1.88
U9C A47U A92G	0.81
A11G U43A A96G C107U	0.04
A69U U72C A116G A118G	0.1
G7A A51G A67G A82U A111G	0.02
A78G A90G U132C	0.18
A18G A62C A94G	1.45
U72A A82U A111G	0.02
U43C A51G A94G U100C U103C U130C	1.23
U9A A67G U100A	0.75
U37C A51U A60G A86G A116G	0.15
A24G U39C A90G U108G	0.02
A54G A62G U132A	0.71
A11G U39C A56G	0.47
A47U A66G A67G A96G	0.41
U37C U57C A59U	1.17
A24G A56G U87A U102C U127C	0.79
U37C G65U A68G	0.67
U43C A82G U102C U130C	0.85
U39A C77U A114G U124C U132A	1.08
G29C A64G U70C U132A	0.45
G74A U127C U130C	0.03
A5G A11G A66G A94G U130C	0.6

Variant	self-cleavage
G14A U43C A68G U100C U130C	1.11
A5G G83A A111G	0.05
A18U G75C A78U A116G	0.05
A116G U120C U139C	0.4
A51G A86G A94G	1.49
G8A A27U A63U A118G U120C U131C	0.21
A24G U37A A52G A56G U108G	0.01
U2C A51U A117U	0.34
U38A U57C A94G U103A A117G U120A U131C	0.36
A33G C85A A110C	0.1
G7U A51G U100C	2.22
A30G A92G A114C	0.01
A18U U19C U39C	1.74
U12A U122C A129G	1.42
A47G A89G A117G	1.7
A5G G20A A23G U49A A55G A64G G75A U108C A111G	0.03
A5G A68G U131C	0.25
A5C A94G U122C	1.19
A51G A67G A94G A110C	0.5
A91G G137A A140C	1.56
A30G A56G A98U	1.42
A24G A69G G74A A78G	0.27
A24C A66G A78U U102A	0.06
U9C A68G U87C A117U	0.44

Variant	self-cleavage
A52G A94G A111G A117G	0.01
U9C A68G A117G U130C	1.24
A52U U87C U100C	2.34
A116U A126G U131G	0.19
A82U A86U U108C A116G	0.04
A13G A55G A60G	0.89
C46U A78C A90G A91G A116G	0.11
A22G A51G A63U A118G	0.19
A82U U127A A140G	0.4
A30G A56G A59G A82U A117G	0.4
A60G A96G A126G U132C	0.09
A30G A56G A89G U97A	1.17
U37C A54U C76A U100C A116G U127C	0
A90G U100C A116U A140G	0.56
C10U U49A A54G A60C A68G	0.52
U2C A5G A55G A60G A114U	0
G44A U57C C61U U87C A95G A116G	0.2
A5G A18G A54G U103C	0.7
U3C A36G U38C U70A C85U A91G	0.73
U37C A78U A126G	0.46
U19C A62G U124A	1.58
A11G A51G A59C A110C	0.06
A64U U100C A135G	2.93
A23G U49C U97C C105U	0.3

Variant	self-cleavage
A47G A56G U127C U139C	0.71
U38A A51U A68G A96G	1.58
A5G A95G A111U	0.34
A56G A59G A86G U97C A116G	0.43
U2C A11G A24U	1.23
A11G A67G C85U A118G	0.92
A63G A67G U122C	1.17
A67G A94U A118G U131C	0.3
A23U A78C A91G U127A A135G	0.27
A36G U43A A126G U133C	0.57
A23G U43C A82U A91G U122C U131C	0.01
U3C C105A U108C U120C U124A U132C	0
U108C A118G U130C	0
A63G U120C U122C	0.44
A23G A51G A54G U122C A129U U133C	0.86
A23G U37C U49C A62G A116U	0.04
A51G G80A A91U G104A	0.02
A11U U38A G137U	1.57
A59C U122C A134G	1.03
U37C A96G A129G	1.24
A33G A62G C113U	0.04
U87C U108C U127C	0
C35A A54G A96U	0.98
